In all, about 110,000 compounds went through this assay and about 40 (0.04%) were called active. This list was built around the results that the source calls inconclusive (neither active nor inactive); the mix of calls is not that of the screen. Calls follow the shape of the dose curve; as a rule, active = well fitted curve in the direction sought with a large enough effect in the signal ratio (not every such curve was filed as active); inconclusive = small, poorly fitted or top-dose-only effect, or a change in a side signal; inactive = flat fitted curve, though single readings scatter; the % refers to the signal ratio. Potencies of inconclusive entries are doubtful fits and often do not repeat.
Test: IkB Signaling;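 as to IkBa stabilization activation: 0% = basal untreated cells and 100% = reference inhibitor full response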
Settings: ABC-DLBCL IkBa-CBG/CBR dual luciferase ratio (green luciferase fused to IkBa over red control in OCI-Ly3 lymphoma cells), 4 h; IkBa stabilization activation: at 57.1 µM (top of the series), scaled: untreated 0%, proteasome inhibitor 100% unless noted
Procedure, shortened: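 Luminescence ratio of IκBα-fused green versus native red beetle luciferase in OCI-Ly3 cells, 4 h post-doxycycline with compound; red signal alone, scaled from basal (0%) to zero light (-100%), flagged nonspecific or cytotoxic effects.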
Potency is read from the fitted curve at half-maximal effect.

Structure (SMILES)	IkBa stabilization activation	Potency
CCOc1ccccc1-c1nnc(SCc2ccc(Cl)cc2)o1	inconclusive: -1.21% [signal inhibitor]	
COc1ccc(OC)c(NC(=O)c2csnn2)c1	inactive	
Cc1cc(N2CCN(c3ccccn3)CC2)n2c(nc3ccccc32)c1C#N	inactive	
CCOC(=O)c1c(C)noc1CP(=O)(c1ccccc1)c1ccccc1	inactive	
Cc1nn(Cc2ccccc2Cl)c(C)c1NC(=O)c1noc2c1CCCCC2	inconclusive: 3.14% [signal inhibitor]	
O=C(Nc1cnn(Cc2ccc(F)cc2)c1)c1cc2nc(-c3ccco3)cc(C(F)(F)F)n2n1	inactive	
Cn1c(-c2ccc(F)cc2)cnc1SCC(=O)N1CCCCC1	inactive	
CC(C)CCNC(=O)C1CCN(c2nc3ccccc3o2)CC1	inactive	
CCCN(C(=O)c1cc2c(Cl)nc3ccccc3c2s1)c1cccc(C)c1	inconclusive: 17.1% [signal inhibitor]	
Cc1ccc2c(c1)cc(CN(Cc1cccs1)C(=O)c1ccco1)c1nnnn12	inactive	
COc1ccc(Cl)cc1Nc1sc(C(=O)c2ccccc2)c(N)c1C(=O)Nc1ccccc1	inconclusive: 1.29% [signal inhibitor]	
Clc1ccc(Cn2ncc3c(N4CCCCC4)ncnc32)cc1	inconclusive: 5.35% [signal inhibitor]	
CCc1c(C)sc2c1CCN(Cc1cccc(F)c1)C2c1ccccc1 (stereo not given)	inconclusive: 3.24% [signal inhibitor]	
CCCN(C/C=C\I)[C@@H]1CCc2cccc(O)c2C1	inconclusive: -0.223% [signal inhibitor]	
COc1ccc(NS(=O)(=O)c2ccc3oc4ccccc4c3c2)cn1	inconclusive: 8.96% [signal inhibitor]	
Cc1ccc(Nc2nc(N)nc(CN3CCN(c4ccccc4F)CC3)n2)cc1	inconclusive: 11.5% [signal inhibitor]	
Cn1c(=O)cc(OCC(=O)N2CCC(N3CCCCC3)CC2)c2ccccc21	inconclusive: 14.7% [signal activator]	
Cc1ccc(NC2=C(c3ccc(C(F)(F)F)cc3)C(=O)c3ccccc32)cc1C	inconclusive: 9.21% [signal inhibitor]	
CC(=O)Nc1ccc(C(=O)CSc2nnc(-c3ccccc3)n2-c2ccccc2)cc1	inactive	
Cc1ccc(S(=O)(=O)c2nc(-c3ccccc3F)oc2N2CCCCC2)cc1	inconclusive: 0.871% [signal inhibitor]	
Cc1ccc(-c2cc(C(=O)NCc3cnn(C)c3C)c3cc(Br)ccc3n2)cc1	inconclusive: 8.7% [signal inhibitor]	
N#CCCSCc1ccc2oc(C(=O)O)cc2c1		inconclusive: 39.8 µM [rising, single point]
Brc1ccc(CSc2nnc(-c3cnccn3)n2Cc2ccco2)cc1	inconclusive: 0.198% [signal inhibitor]	

Structure (SMILES)	IkBa stabilization activation	Potency
CCOC(=O)c1ccccc1NC(=O)Cn1cc(C(=O)c2cccc(OC)c2)c(=O)c2ccc(C)nc21	inconclusive: 3.13% [signal inhibitor]	
Cc1cccc(-c2nc(S(=O)(=O)c3ccc(F)cc3)c(N3CCN(c4ccccc4)CC3)o2)c1	inactive	
Cc1nc2cnc(N3CCNCC3)nc2n(Cc2cccs2)c1=O	inactive: -0.403% [at 11.4 µM, scaled: untreated 0%, proteasome inhibitor 100%]	
CC(C)c1ccc(NC(=O)c2cc3c(s2)-c2ccccc2SC3)cc1	inconclusive: 8.41% [signal inhibitor]	
c1ccc(CCc2nc(-c3cccnc3)no2)cc1	inactive	
O=C(CN1C(=O)COc2ccc(S(=O)(=O)N3CCCCCC3)cc21)NCc1ccc(Cl)cc1	inconclusive: 0.18% [signal inhibitor]	
COc1cc2c(cc1OC)C(COc1ccccc1OC)N(C(=O)CC(C)C)CC2 (stereo not given)	inactive	
Cc1ccc(Nc2c3c(nc4ncnn24)CCC3)cc1	inactive	
CCOc1ccc(NC(=O)c2ccc3c(SCC(=O)O)c4c(nc3c2)CCCC4)cc1	inconclusive: 15.6% [signal inhibitor]	
Cc1ccc(C)c(N2CCN(C(=O)C3CCN(c4nc(-c5ccc(C(C)C)cc5)no4)CC3)CC2)c1	inactive	
Cc1ccc(C(=O)N2CCc3cc(CNS(=O)(=O)c4ccc(Cl)s4)ccc32)cc1	inconclusive: -0.844% [signal inhibitor]	
O=C(Nc1ccc(NC(=O)c2cc3ccccc3o2)cc1)c1ccccc1	inactive	
O=C(CN1CCN(S(=O)(=O)c2cc(Cl)ccc2Cl)CC1)Nc1cccc(F)c1	inconclusive: 1.33% [signal inhibitor]	
Cc1cccc(CNc2nc(-c3ccccc3CN(C)C)nc3ccccc23)c1	inactive: -3.82% [at 11.4 µM, scaled: untreated 0%, proteasome inhibitor 100%]	
Fc1ccc(-c2nc(Nc3ccc(F)c(Cl)c3)nc3c2COc2ccccc2-3)cc1	inconclusive: 3.42% [signal inhibitor]	
CC(C(=O)Nc1cccc(C#N)c1)n1nc(-c2ccccc2)c2c(c1=O)CCCC2 (stereo not given)	inconclusive: 1.83% [signal inhibitor]	
CC1=C(C(=O)Nc2ccc(C)cc2C)C(c2ccccc2[N+](=O)[O-])n2ncc(C(=O)Nc3ccccc3)c2N1 (stereo not given)	inconclusive: 5.53% [signal inhibitor]	
CCOC(=O)C1CCCN(C(=O)c2ccc3c(c2)N(Cc2ccccc2)C(=O)c2ccccc2S3(=O)=O)C1 (stereo not given)	inconclusive: -1.22% [signal inhibitor]	
Cc1nn(C)c(C)c1CN(C)C(=O)c1cnn2c1NC(c1ccccc1)CC2C(F)(F)F (stereo not given)	inconclusive: 12.7% [signal activator]	
O=C(NCC(c1cccnc1)N1CCc2ccccc2C1)c1ccc(F)c(F)c1 (stereo not given)	inconclusive: 0.993% [signal inhibitor]	
CCOC(=O)c1ccccc1NC(=O)CSc1nnc(COc2ccccc2C)n1C	inconclusive: 1.91% [signal inhibitor]	
COc1cc(C(=O)Nc2nc(-c3cccs3)cs2)cc(OC)c1OC	inconclusive: -6.43% [signal inhibitor]	

From PubChem BioAssay AID445 (National Center for Advancing Translational Sciences (NCATS), 2006)
